# Screen size: about 48,000 compounds; about 550 (1.1%) were called active. Roughly 4% stayed inconclusive and do not appear here. Rule as the data show it: active = potency below about 15 µM; inconclusive = mostly about 16 µM to 33 µM; inactive = weaker than that. This is one part of the list.
# Biological target: Lysosomal acid glucosylceramidase (Homo sapiens) (UniProt P04062)
# Experiment: Glucocerebrosidase;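 also: the screen sought inhibitors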
# Details: purified enzyme, resorufin glucoside fluorescence (screen aimed at inhibitors), 20 min
# In short: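 Compounds titrated against 0.2 nM normal enzyme, 30 uM resorufin beta-D-glucopyranoside substrate, citrate/phosphate buffer with taurocholate and tween-20, pH 5.9. Reaction ran 20 min at room temperature; fluorescence (Ex 548/Em 600) gave AC50.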
# Potency is read from the fitted curve at half-maximal effect.
# Chain of UniProt P04062 (P04062 whole entry, looked up): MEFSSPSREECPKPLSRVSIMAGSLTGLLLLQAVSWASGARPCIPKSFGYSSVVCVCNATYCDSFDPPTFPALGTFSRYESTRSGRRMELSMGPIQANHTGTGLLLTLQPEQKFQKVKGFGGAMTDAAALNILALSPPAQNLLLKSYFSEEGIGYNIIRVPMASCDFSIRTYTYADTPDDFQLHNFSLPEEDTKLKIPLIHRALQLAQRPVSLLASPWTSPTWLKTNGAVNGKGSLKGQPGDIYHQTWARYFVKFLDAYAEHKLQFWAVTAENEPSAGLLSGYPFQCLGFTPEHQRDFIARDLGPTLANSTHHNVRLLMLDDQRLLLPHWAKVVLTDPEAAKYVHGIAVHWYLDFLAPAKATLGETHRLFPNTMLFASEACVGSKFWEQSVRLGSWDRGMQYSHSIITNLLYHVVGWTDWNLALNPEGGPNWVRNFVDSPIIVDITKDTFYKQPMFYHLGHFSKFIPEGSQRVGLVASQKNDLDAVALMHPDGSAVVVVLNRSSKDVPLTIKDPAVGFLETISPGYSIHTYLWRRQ
row,Compound,Potency
1,CCOc1c(Br)cc(C2NS(=O)(=O)N=C3CCCCCN32)cc1OC (stereo not drawn),inactive: > 76.9 µM
2,Nc1sc2c(c1C(=O)NC1CCS(=O)(=O)C1)CCC2 (stereo not drawn),inactive: > 76.9 µM
3,Cc1ccc(C(=O)Nc2ncc(Cc3ccccc3)s2)o1,inactive: > 76.9 µM
4,CCSc1nc2c(c(=O)n1CC)SC(C)C2 (stereo not drawn),inactive: > 76.9 µM
5,COc1ccccc1N1CCN(CC(=O)Nc2cc(C)nn2-c2nc(C)cc(C)n2)CC1,inactive: > 76.9 µM
6,COc1ccc(CN2CCN(C(=O)c3cccnc3)CC2)cc1Br,inactive: > 76.9 µM
7,CCOC(=O)c1sc(N)c(C#N)c1CSc1nc2ccc(OCC)cc2[nH]1,inactive: > 76.9 µM
8,CCCc1[nH]n(-c2nc3ccccc3s2)c(=O)c1C=NCC1CCCO1 (stereo not drawn),active: 12.7 µM
9,CN(C1CCCCC1)S(=O)(=O)c1ccc(-n2cnnn2)cc1,inactive: > 76.9 µM
10,Cc1ccc(C)c(-n2c(SCC(=O)Nc3nonc3C)nnc2-c2ccoc2C)c1,inactive
11,CCC(C)C(NC(=O)C1CCC(C)CC1)C(=O)NC(C(=O)OC)C(C)C (stereo not drawn),inactive: > 76.9 µM
12,CCOC(=O)Nc1ccc2c(c1)N(C(=O)CCN1CCOCC1)c1ccccc1S2,inactive
13,COC(=O)c1cc(Br)c(=O)n(Cc2ccncc2)c1,inactive: > 76.9 µM
14,Cc1cc(Cl)cc(C)c1OCCCCn1ccnc1,inactive: > 76.9 µM
15,COc1ccccc1NC(=O)CNC(=O)c1ccc(F)cc1,inactive: > 76.9 µM
16,CCCOc1ccc(/C(O)=C2/C(=O)C(=O)N(CCOC)C2c2cccnc2)cc1 (stereo not drawn),inactive: > 76.9 µM
17,CN1CCN(C(c2cccc(C(F)(F)F)c2)c2nnnn2C(C)(C)C)CC1 (stereo not drawn),inactive: > 76.9 µM
18,Cc1nn(-c2ccccc2)c(C)c1C(=O)OC/C(O)=C(\C#N)c1nc2ccccc2[nH]1,inactive: > 76.9 µM
19,Cc1ccccc1NC(=O)c1c(F)c(F)c(F)c(F)c1F,inactive: > 76.9 µM
20,COc1ccc2[nH]c(=O)c(CN(C(=O)NC3CCCCC3)C3CCCC3)cc2c1,inactive: > 76.9 µM
21,COC(=O)c1cc(Br)c(=O)n(CCc2ccccc2)c1,inactive: > 76.9 µM
22,COc1ccc(Cl)cc1CN1CCN(c2nc(C)cc(C)c2C#N)CC1,inactive: > 76.9 µM
23,Cc1ccc(NC(=O)Cn2c(C)cc(C)c(C#N)c2=O)c(Cl)c1,inactive: > 76.9 µM
24,CC(C)(CNS(=O)(=O)c1ccc(Cl)cc1)N1CCCCC1,inactive: > 76.9 µM

row,Compound,Potency
1,O=C(Nc1ccon1)c1sc2cc(F)ccc2c1Cl,inactive: > 76.9 µM
2,CCOC(=O)CNC(=O)CSc1nc2sc(C)c(C)c2c(=O)n1C,inactive: > 76.9 µM
3,CSCCC(NC(N)=O)C(=O)NCC1CCCCC1 (stereo not drawn),inactive: > 76.9 µM
4,COc1ccccc1CN(Cc1cc2c(C)ccc(C)c2[nH]c1=O)Cc1nnnn1Cc1ccco1,inactive: > 76.9 µM
5,O=C(Nc1ncnc2sc3c(c12)CCC3)c1ccco1,inactive: > 76.9 µM
6,Nc1nc(N2C(=O)C3CC=CCC3C2=O)nn1-c1ccccc1 (stereo not drawn),inactive: > 76.9 µM
7,C=CCNC(=O)Nc1ccc2oc(C)nc2c1,inactive: > 76.9 µM
8,O=C(NCc1cccnc1)c1ccc(COc2ccc3c(c2)CCC3)o1,inactive: > 76.9 µM
9,O=C(C1CC1)N(CCc1ccccc1)Cc1nc2ccccc2c(=O)[nH]1,inactive: > 76.9 µM
10,CN(C(=O)c1ccccn1)c1nnc(-c2ccccn2)s1,inactive: > 76.9 µM
11,COCCCNC(=O)Cn1nnc(-c2ccccc2NC(=O)c2ccccc2F)n1,inactive: > 76.9 µM
12,O=C(Nc1c(Cl)cc(Cl)cc1C(=O)NCC1CCCO1)c1ccco1 (stereo not drawn),inactive: > 76.9 µM
13,C=CCn1c(SCC(=O)Nc2cc(NC(C)=O)ccc2OC)nnc1-c1cccnc1,inactive: > 76.9 µM
14,Cc1nn(Cc2ccc(C(=O)NC3CCCCC3)o2)c(C)c1Br,inactive: > 76.9 µM
15,O=C(NCCNC(=O)C(F)(F)F)c1ccncc1,inactive: > 76.9 µM
16,CSc1nc2c(ccc3ccccc32)o1,inactive: > 76.9 µM
17,CC(C)OC(=O)Cn1c(=O)oc2ccccc21,inactive: > 76.9 µM
18,COC(=O)c1ccc(C(=S)N2CCOCC2)cc1,inactive: > 76.9 µM
19,CNc1nc(CC(C)=O)ns1,inactive: > 76.9 µM
20,COC(=O)COc1nc(C)c(Br)c(OC)n1,inactive: > 76.9 µM
21,CSc1ncccc1C(=O)OCC(=O)Nc1cc(C(F)(F)F)ccc1N1CCOCC1,inactive: > 76.9 µM
22,COc1cc(C2Nc3ccc4ncccc4c3C3=C2C(=O)CCC3)ccc1O (stereo not drawn),inactive: > 76.9 µM
23,COC(=O)Nc1nc(C)c(C(=O)N(C)C)s1,inactive: > 76.9 µM
24,Cc1sc2ncn(CC(=O)NCCCC(=O)N3CCN(c4ccccn4)CC3)c(=O)c2c1C,inactive: > 76.9 µM

row,Compound,Potency
1,COc1ccc(S(=O)(=O)Nc2nc(C(F)(F)F)cs2)cc1,inactive: > 76.9 µM
2,Cc1cc2ncn(/N=C/c3cc(Br)ccc3O)c2cc1C,inactive: > 76.9 µM
3,CCOC(=O)c1cc2sc(C)cc2n1CC(=O)NCCc1ccccc1,inactive: > 76.9 µM
4,CCOC(=O)C1CCCN(Cc2c(Cl)cccc2Cl)C1 (stereo not drawn),inactive: > 76.9 µM
5,Cn1c(=N)c(S(=O)(=O)c2ccc(Cl)cc2)cc2c(=O)n3ccccc3nc21,inactive: > 76.9 µM
6,Cc1nc(C)c(C(=O)Nc2nc3c(C)cccc3s2)o1,inactive: > 76.9 µM
7,COc1cccc2c1OC1(C)CC2NC(=O)N1c1cccc(C(=O)Nc2ccc3c(c2)OCCO3)c1 (stereo not drawn),inactive: > 76.9 µM
8,Cn1nc(C(=O)NCc2ccccn2)c2ccccc2c1=O,inactive: > 76.9 µM
9,O=C(CN(C(=O)CCNC(=O)c1ccco1)c1ccccc1)NC1CCCC1,inactive: > 76.9 µM
10,CCC(C)NC(=O)Cn1c(=O)n(CCCCC(=O)NCc2ccco2)c(=O)c2ccccc21 (stereo not drawn),inactive: > 76.9 µM
11,CCCCN(CC)CCNC(=O)CN(C)S(=O)(=O)c1ccc2c(c1)c(=O)n(C)c(=O)n2C,inactive: > 76.9 µM
12,O=C1CSC(=S)N1c1cccnc1,inactive: > 76.9 µM
13,CC(=O)Oc1c(S(=O)(=O)c2ccc(C)cc2)c(C)nn1-c1ccccc1,inactive: > 76.9 µM
14,O=C(Nc1nc(-c2ccco2)cs1)c1ccccc1,inactive: > 76.9 µM
15,O=C1c2ccccc2C(=O)N1c1nc2nccc(-c3ccccc3)n2n1,inactive: > 76.9 µM
16,Cc1ccc(S(=O)(=O)C2(C(=O)N(C)C3CCCCC3)CC2)cc1,inactive: > 76.9 µM
17,CS(=O)(=O)N(CC(=O)N1CCC(C(N)=O)CC1)C1CCCCC1,inactive: > 76.9 µM
18,CCOC(=O)C1CCN(C(=O)CC(NS(=O)(=O)c2ccc(OC)cc2)C(C)C)CC1 (stereo not drawn),inactive: > 76.9 µM
19,CCC(C)NC(=O)C1c2ccccc2C(=O)N1Cc1cc(OC)ccc1OC (stereo not drawn),inactive: > 76.9 µM
20,COc1cc(OC)cc(C(=O)Nn2cc(C(=O)N3CCN(C)CC3)c3ccccc3c2=O)c1,inactive: > 76.9 µM
21,COc1cccc2cc(C(=O)Nc3cccnc3N3CCOCC3)c(=O)oc12,inactive: > 76.9 µM
22,O=C(CSc1nc2ccccc2o1)N1CCCC1,inactive: > 76.9 µM
23,CC(=O)NCCn1c(SCc2cc(=O)n3cc(Cl)ccc3n2)nc2ccccc2c1=O,inactive: > 76.9 µM
24,NC(=O)C1CCN(C2CC(=O)N(c3cccc(F)c3)C2=O)CC1 (stereo not drawn),inactive: > 76.9 µM

row,Compound,Potency
1,Cn1c(SCC(=O)NC2CC2)nnc1C(F)(F)F,inactive: > 76.9 µM
2,O=C(COC(=O)C1CCCO1)Nc1cccc(C(F)(F)F)c1 (stereo not drawn),inactive: > 76.9 µM
3,CCCCOC(=O)c1ccc(N2C(=O)CC(N3CCN(C/C=C/c4ccccc4)CC3)C2=O)cc1 (stereo not drawn),inactive: > 76.9 µM
4,CCOC(=O)c1cc2occc2n1CC(=O)N1CCOCC1,inactive: > 76.9 µM
5,Cc1nc2[nH]c(=O)c3c(n2n1)NC1=C(C(=O)CC(C)(C)C1)C3c1ccccc1 (stereo not drawn),inactive: > 76.9 µM
6,CCCCSc1nc(C)c(CC(=O)OC)c(=O)[nH]1,inactive: > 76.9 µM
7,CCC1Sc2ccccc2N(CC(=O)NC2CCCC2)C1=O (stereo not drawn),inactive: > 76.9 µM
8,COc1ccc(-c2nnco2)cc1OC,inactive: > 76.9 µM
9,CC(=O)C1=C(O)C(=O)N(Cc2ccccc2)C1c1ccco1 (stereo not drawn),inactive: > 76.9 µM
10,COc1ccc(OCC(=O)N2CCN(C(=O)COc3ccc(Br)cc3)CC2)cc1,inactive: > 76.9 µM
11,CON(C)c1nc(OCCNC(=O)OCc2ccc(Cl)cc2Cl)nc(N(C)C)n1,inactive: > 76.9 µM
12,CCCCC(=O)Nc1cccc(-c2nnc(-c3ccccc3)o2)c1,inactive: > 76.9 µM
13,Cn1c(CN2CCOCC2)c(C#N)c2ccccc21,inactive: > 76.9 µM
14,C=CCN1C(=O)CSC1=Nc1cccc(O)c1,inactive: > 76.9 µM
15,Cc1ccc2c(CN3C(=O)NC4(CCCCC4)C3=O)cc(=O)oc2c1C,inactive: > 76.9 µM
16,COCCN(CCOC)c1ncc(Cl)c(C(=O)c2c(C)cc3ccccn23)n1,inactive: > 76.9 µM
17,C(=N\c1nc2ccccc2n1CCN1CCOCC1)/c1cccs1,inactive: > 76.9 µM
18,O=C1CCNc2cc3ccccc3cc21,inactive: > 76.9 µM
19,COc1ccccc1NC(=O)c1ccc(NS(=O)(=O)c2c(C)noc2C)cc1,inactive
20,CCOC(=O)NC1(C(F)(F)F)N=C(c2ccccc2)NC1=O (stereo not drawn),inactive: > 76.9 µM
21,N#Cc1ccc(CSc2nnc(-c3cccs3)n2-c2ccccc2)cc1,inactive: > 76.9 µM

# Reference: PubChem BioAssay AID360 (National Center for Advancing Translational Sciences (NCATS), 2006)
